# Hit rate of the full screen: of about 320,000 compounds, about 200 (0.062%) were called active. The shares of active, inactive and inconclusive entries below differ from those in the screen. Calls follow the shape of the dose curve; as a rule, active = well fitted activation curve with a large enough effect; inconclusive = small, poorly fitted or top-dose-only effect; inactive = no such curve, though single readings can be large or run the other way. Potencies of inconclusive entries are left out as doubtful fits.
# Assay: qHTS assay for re-activators of p53 using a Luc reporter; also: nearly all actives have a fitted effect of over 45% in size; as to activity change, positive = activation: % of control where 0% means no effect
# Conditions: H1299 p53-A138V BP100-luciferase reporter, luminescence, 24 h; series mostly up to 92.2 µM; activity change, positive = activation: at the top concentration
# Method in brief: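 H1299 (p53-null), stable ts p53-A138V + BP100-Luc; 1000 cells/well, Opti-MEM/10% FBS; cpd 4 pt, 1:5; 24 h, 37 deg C, 5% CO2; detection reagent 10 min RT; luminescence.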
# Potency is read from the fitted curve at half-maximal effect; tags tell the direction and shape of the fitted curve.
Structure (SMILES),Potency,"activity change, positive = activation"
O=C(NCc1ccccc1)NC1CCCCC1,"inconclusive [activator, full curve, poor fit]",–
CC(=O)c1ccc(NC(=S)N2CCCC2)cc1,"inconclusive [activator, single point]",–
Nn1c(-c2ccccc2Cl)nnc1-c1ccccc1Cl,"inconclusive [activator, partial curve, poor fit]",–
CCOc1ccc(-c2nn3c(-c4ccccc4)nnc3s2)cc1,"inconclusive [activator, partial curve, poor fit]",–
COc1cc(/C=C/c2ccc3cccc(O)c3n2)ccc1O,"inconclusive [activator, partial curve, poor fit]",–
CN(C)CCCN(C(=O)c1cccs1)c1nc2cc3c(cc2s1)OCO3,"inconclusive [activator, single point]",–
CCOP(=O)(OCC)C(Nc1cccc([N+](=O)[O-])c1)c1ccc(OC)cc1 (stereo unspecified),–,inactive: -2.49%
O=C(Nc1ccc(-c2nc3cccnc3s2)cc1)c1ccc(Br)o1,"inconclusive [activator, partial curve, poor fit]",–
N#CC1=C(S)N(c2ccccc2)C2(CCCCC2)NC1=O,"inconclusive [activator, partial curve, poor fit]",–
CCOc1cc(C(=O)OCC(=O)Nc2cccc(C)c2)ccc1OCC(=O)N1CCOCC1,"inconclusive [activator, partial curve, poor fit]",–
CCCC(=O)c1ccc(N2CCCC2)c(F)c1,"inconclusive [activator, partial curve, poor fit]",–
COc1cccc(-c2nnc(NC(=O)c3cccc(F)c3)o2)c1,"inconclusive [activator, partial curve, poor fit]",–
CCOC(=O)c1cnc(SCC(=O)Nc2nnc(CC)s2)nc1N,"inconclusive [activator, single point]",–
O=C(Nc1nc2c(Cl)ccc(Cl)c2s1)c1ccco1,–,inactive: 10.6%
O=S(=O)(c1ccc2ccccc2c1)N1CCN(C(=S)Nc2ccc(F)c(Cl)c2)CC1,–,inactive: 1.37%
Cc1ccc(NC(=O)c2ccc(F)c(S(=O)(=O)N3CCOCC3)c2)cc1F,"inconclusive [activator, partial curve, poor fit]",–
O=C(Nc1cc2c(cc1Cl)OCCO2)c1ccco1,"inconclusive [activator, partial curve, poor fit]",–
CCN1CCN(C(c2cccs2)C(C)NC(=O)c2ccccc2OC)CC1 (stereo unspecified),"inconclusive [activator, single point]",–
O=C(CNC1=NCCC1)c1ccc(Cl)cc1,"inconclusive [activator, single point]",–
COc1ccc2oc(C(=O)OC(C)C(=O)N3CCC(C)CC3)c(C)c2c1 (stereo unspecified),–,inactive: -2.6%
Cc1ccc(S(=O)(=O)N2CCC(C(=O)NC3CC3)CC2)cc1,–,inactive: 0.402%
O=C1/C(=C/c2cccs2)SC(=S)N1CC(=O)N1CCCCC1CCO (stereo unspecified),"inconclusive [activator, partial curve, poor fit]",–

Structure (SMILES),Potency,"activity change, positive = activation"
CCCCN(C(=O)C1COc2ccccc2O1)c1c(N)n(CCC)c(=O)[nH]c1=O (stereo unspecified),–,inactive: 9.13%
O=C(CSc1nnc(-c2ccccc2O)o1)N1CCOCC1,"inconclusive [activator, partial curve, poor fit]",–
CC(=O)c1c(C)[nH]c(C(=O)NC2CCCCC2)c1C,"inconclusive [activator, single point]",–
COc1ccc(Cl)cc1C(=O)Nc1ccc2c(c1)OCO2,"inconclusive [activator, partial curve, poor fit]",–
CS(=O)(=O)N1CCC(Oc2ccccc2C(=O)N2CCC[C@H]2CO)CC1,"inconclusive [activator, partial curve, poor fit]",–
Cc1cccc2nc(CNc3ccc(F)cc3)cn12,"inconclusive [activator, partial curve, poor fit]",–
C=CC[C@@H](CC(=O)N(CCO)Cc1ccccc1)C(=O)NC[C@H](OC(=O)[C@@H](CC=C)Cc1ccc(F)cc1)c1ccccc1,–,inactive: -14.1%
CC(=O)N(Cc1ccccc1C)c1cccc(C)c1C,–,inactive: -3.14%
Cc1ccccc1C(=O)c1cccn1CC(=O)NCc1cccc(Cl)c1,"inconclusive [activator, single point]",–
O=C(NCC(=O)N1CCCCCCC1)c1ccc(Cl)cc1,"inconclusive [activator, full curve, poor fit]",–
COc1cccc(NC(=O)CSc2nc3c(oc4ccccc43)c(=O)[nH]2)c1,"inconclusive [activator, partial curve, poor fit]",–
O=C(c1ccc(Cl)s1)N1CCN(C23CC4CC(CC(C4)C2)C3)CC1,"inconclusive [activator, single point]",–
c1ccc(-c2ncc3c(ccc4ccccc43)n2)cc1,"inconclusive [activator, full curve, poor fit]",–
CC1=NN(c2ccccc2)C(=O)C1C(=O)C(=O)Nc1ccc(F)cc1 (stereo unspecified),"inconclusive [activator, partial curve, poor fit]",–
COc1ccc(S(=O)(=O)N2CCCCCC2)cc1C(=O)N(C)Cc1c(F)cccc1Cl,–,inactive: -18.5%
COc1nc2c(C)cccc2cc1-c1noc(-c2ccncc2)n1,"inconclusive [activator, single point]",–
CCOC(=O)c1cc2c(c(CSc3nc4ccccc4c(=O)n3Cc3ccco3)c1)OCOC2,"inconclusive [activator, single point]",–
CCCn1c(=N)c(S(=O)(=O)c2ccc(F)cc2)cc2c(=O)n3cccc(C)c3nc21,–,inactive: 0.114%
COc1cccc(-c2ccc(SCc3ccccn3)nn2)c1,–,inactive: 1.73%
COc1ccc2[nH]c3c(=O)n(Cc4ccc(C(=O)N5CCC(C(N)=O)CC5)cc4)c(=S)[nH]c3c2c1,–,inactive: 7.46%
Cc1ccc(C(=O)C[n+]2cc(-c3ccc(C)cc3)n3c2CCCCC3)cc1,–,inactive: -11%
COc1cc2[nH]c(C(=O)N3CC(C)OC(C)C3)cc2c(OC)c1OC (stereo unspecified),–,inactive: -2.85%

Structure (SMILES),Potency,"activity change, positive = activation"
CS(=O)(=O)N1CCc2cc(-c3csc(NCC4CCCO4)n3)ccc21 (stereo unspecified),"inconclusive [activator, single point]",–
FC(F)C(F)(F)C(F)(F)C(F)(F)c1cc(-c2ccccc2)n[nH]1,"inconclusive [activator, partial curve, poor fit]",–
COc1ccc(OC)c(C(=O)c2coc3ccc(OC(C)=O)cc23)c1,–,inactive: 3.69%
O=c1c(Cl)c(N2CCOCC2)cnn1-c1nc2ccccc2[nH]1,–,inactive: 16.5%
COC(=O)c1ccc(CSc2nc(N3CCOCC3)c3c(c2C#N)CC(C)(C)OC3)o1,"inconclusive [activator, single point]",–
CC(C)(C)OC(=O)N1CCN(C(=O)Nc2ccc3c(c2)OCCO3)CC1,"inconclusive [activator, single point]",–
O=S(=O)(c1ccc(OCc2nc3ccccc3s2)c(Cl)c1)N1CCOCC1,"inconclusive [activator, full curve, poor fit]",–
CN1CCN(C(=S)c2ccc(-c3cccc([N+](=O)[O-])c3)o2)CC1,"inconclusive [activator, partial curve, poor fit]",–
CCc1ccc(/C=N\NC(=O)c2ccc(Br)o2)s1,"inconclusive [activator, full curve, poor fit]",–
O=C(N/N=C/c1sc(=O)n(-c2ccccc2)c1Cl)c1ccccc1,"inconclusive [activator, partial curve, poor fit]",–
COc1ccc(-c2ccc(OC)cc2)cc1,"inconclusive [activator, partial curve, poor fit]",–
CN(C)S(=O)(=O)c1ccc2nc(NC(=O)c3cccs3)sc2c1,"inconclusive [activator, partial curve, poor fit]",–
Cc1ccc(Cn2c(=S)[nH]c3ccc(N4CCOCC4)cc3c2=O)o1,"inconclusive [activator, single point]",–
c1ccc(-c2cn3cccnc3n2)cc1,"inconclusive [activator, partial curve, poor fit]",–
COc1ccc(C/C(=N\O)c2ccc(OC)cc2)cc1,"inconclusive [activator, single point]",–
CC(C)(C)C(=O)Nc1nnc(-c2ccncc2)o1,–,inactive: -9.99%
CCN1CCN(c2cc(C)c3cc(NC(=O)CCC(=O)N4CCN(c5ccccc5OC)CC4)ccc3n2)CC1,"inconclusive [activator, partial curve, poor fit]",–
CCN(C(=O)COC(=O)c1oc2ccc(OC)cc2c1C)C1CCS(=O)(=O)C1 (stereo unspecified),–,inactive: 1.92%
CN(CC(=O)Nc1ccccc1C(F)(F)F)C(=O)CCc1nc2sc3c(c2c(=O)[nH]1)CCCC3,–,inactive: -26.6%
Cc1cc(O)ccc1NC(=S)NC(=O)c1cncc(Br)c1,"inconclusive [activator, single point]",–
Cc1ccc(/C=N/N2C(=O)c3ccccc3NC2c2ccc(C)cc2)cc1 (stereo unspecified),"inconclusive [activator, partial curve, poor fit]",–
COc1ccc(-c2nn(-c3ccccc3)cc2/C=N/N2C(=O)CSC2=S)cc1,"inconclusive [activator, partial curve, poor fit]",–
